Assay results from patent US20250145714A1 (GENUV, published 2025).

What was measured:
[1] = target: human PD-1 expressed on HEK-Blue cells (pCMV3-hPD1 vector) (human, UniProt Q15116 25-288); assay: cell-based or functional assay
[2] = target: T1, IL-2Rβγ on HEK-Blue CD122/CD132 cells (InvivoGen) (UniProt P14784 27-551; P31785 23-369, limits assumed); assay: cell-based or functional assay
T1 sequence (looked up) 1: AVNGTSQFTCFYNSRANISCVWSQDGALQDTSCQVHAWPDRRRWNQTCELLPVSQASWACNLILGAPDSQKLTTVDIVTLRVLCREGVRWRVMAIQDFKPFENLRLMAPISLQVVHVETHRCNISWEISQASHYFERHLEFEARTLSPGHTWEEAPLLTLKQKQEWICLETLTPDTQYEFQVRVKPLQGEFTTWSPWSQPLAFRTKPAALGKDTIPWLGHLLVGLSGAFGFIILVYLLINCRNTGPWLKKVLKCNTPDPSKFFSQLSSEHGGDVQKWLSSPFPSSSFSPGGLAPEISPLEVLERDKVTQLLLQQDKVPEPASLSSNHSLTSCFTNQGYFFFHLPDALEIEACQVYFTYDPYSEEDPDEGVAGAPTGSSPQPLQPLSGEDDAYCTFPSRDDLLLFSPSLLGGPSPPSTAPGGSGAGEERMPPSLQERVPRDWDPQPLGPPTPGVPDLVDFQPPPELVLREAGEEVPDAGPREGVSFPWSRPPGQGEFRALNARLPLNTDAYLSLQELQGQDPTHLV
T1 sequence (looked up) 2: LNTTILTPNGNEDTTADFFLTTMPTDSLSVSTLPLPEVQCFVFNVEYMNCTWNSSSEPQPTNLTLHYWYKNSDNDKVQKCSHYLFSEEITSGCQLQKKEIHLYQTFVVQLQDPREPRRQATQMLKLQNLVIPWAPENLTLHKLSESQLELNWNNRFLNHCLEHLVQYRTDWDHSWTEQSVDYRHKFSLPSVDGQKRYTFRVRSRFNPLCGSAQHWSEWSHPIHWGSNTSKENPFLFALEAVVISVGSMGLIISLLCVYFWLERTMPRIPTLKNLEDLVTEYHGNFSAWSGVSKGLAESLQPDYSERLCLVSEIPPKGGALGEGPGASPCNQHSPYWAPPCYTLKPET

[3] = target: T2, IL-2Rαβγ on HEK-Blue IL-2 cells (InvivoGen) (UniProt P01589 22-272; P14784 27-551; P31785 23-369, limits assumed); assay: cell-based or functional assay
T2 sequence (looked up) 1: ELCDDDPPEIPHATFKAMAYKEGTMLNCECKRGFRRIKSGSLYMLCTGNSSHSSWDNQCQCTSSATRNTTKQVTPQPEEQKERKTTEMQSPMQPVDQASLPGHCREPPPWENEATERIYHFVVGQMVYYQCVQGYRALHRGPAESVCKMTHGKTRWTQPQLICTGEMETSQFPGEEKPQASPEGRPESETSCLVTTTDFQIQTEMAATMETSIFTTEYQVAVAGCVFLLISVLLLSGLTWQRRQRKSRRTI
T2 sequence (looked up) 2: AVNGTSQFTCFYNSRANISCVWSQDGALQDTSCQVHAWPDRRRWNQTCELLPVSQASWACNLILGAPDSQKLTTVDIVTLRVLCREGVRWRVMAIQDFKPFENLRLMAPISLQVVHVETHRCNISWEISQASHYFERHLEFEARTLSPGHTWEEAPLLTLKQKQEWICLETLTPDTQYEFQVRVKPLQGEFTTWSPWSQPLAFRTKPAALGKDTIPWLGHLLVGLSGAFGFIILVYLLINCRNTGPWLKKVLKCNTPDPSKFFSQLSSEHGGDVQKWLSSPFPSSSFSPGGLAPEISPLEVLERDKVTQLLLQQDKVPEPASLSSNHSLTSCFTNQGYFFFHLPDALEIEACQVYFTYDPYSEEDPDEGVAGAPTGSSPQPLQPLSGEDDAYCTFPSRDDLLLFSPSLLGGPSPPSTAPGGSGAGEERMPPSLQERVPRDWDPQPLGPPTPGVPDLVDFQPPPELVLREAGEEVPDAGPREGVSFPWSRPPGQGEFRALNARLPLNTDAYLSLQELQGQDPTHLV
T2 sequence (looked up) 3: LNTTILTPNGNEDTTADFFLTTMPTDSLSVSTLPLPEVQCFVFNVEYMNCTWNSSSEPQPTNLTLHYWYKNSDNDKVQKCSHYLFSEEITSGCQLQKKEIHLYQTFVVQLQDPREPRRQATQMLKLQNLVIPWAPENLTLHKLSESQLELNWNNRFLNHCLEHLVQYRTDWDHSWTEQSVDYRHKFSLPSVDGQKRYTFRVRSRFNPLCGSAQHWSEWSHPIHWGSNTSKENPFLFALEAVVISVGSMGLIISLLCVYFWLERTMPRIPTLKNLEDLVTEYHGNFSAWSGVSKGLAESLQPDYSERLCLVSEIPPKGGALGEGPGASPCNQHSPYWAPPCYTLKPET

[4] = target: T3, Human PD-1 (Acrobiosystems, Cat #PD1-H5221) (human, UniProt Q15116 partial chain); assay: SPR Biacore 8K, human PD-1 amine-coupled on CM5, 1:1 model, pH 6.0
T3 construct: Bought protein, immobilised on a CM5 chip; also called hPD-1
Description: (§1) Human PD-1 (Acrobiosystems, Cat #PD1-H5221) at a concentration of 1 μg/ml was immobilized on a CM5 chip (Cytiva) using an amine coupling kit (Cytiva) according to the manufacturer's instructions. […] After each experiment in each concentration cycle, the chip was regenerated with glycine at pH 1.5. At this time, the running buffer used was a pH 7.4 or pH 6.0 HBS-EP+ buffer (0.1 M HEPES, 1.5 M NaCl, 0.03 M EDTA and 0.5% v/v Surfactant P20), and the experimental proteins were diluted in the running buffer.
(§2) The analysis was performed using the 1:1 binding model in Biacore evaluation software version 3.0, and the results of the kinetic constants (ka and kd) and affinity (KD) values are shown in Table 3 below.

[5] = target: T3, Human PD-1 (Acrobiosystems, Cat …); assay: SPR Biacore 8K, human PD-1 amine-coupled on CM5, 1:1 model, pH 7.4
Description: as §1, §2

[6] = target: T4, IL-2Rα-His (Acrobiosystems) (UniProt P01589 22-213); assay: ELISA on plate-coated IL-2Rα-His, OD450 against antibody concentration (M)
T4 construct: also called IL-2Rα protein; not shown: His tag
T4 sequence (looked up): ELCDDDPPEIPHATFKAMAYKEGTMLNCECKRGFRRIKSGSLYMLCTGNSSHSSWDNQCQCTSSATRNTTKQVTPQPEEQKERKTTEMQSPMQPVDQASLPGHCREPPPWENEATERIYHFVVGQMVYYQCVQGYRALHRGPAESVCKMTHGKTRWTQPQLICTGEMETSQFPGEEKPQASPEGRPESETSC

[7] = target: T5, IL-2Rβγ-His (Acrobiosystems) (UniProt P14784 27-239; P31785 23-262, limits assumed); assay: ELISA on plate-coated IL-2Rβγ-His, OD450 against antibody concentration (M)
T5 construct: His-tagged; also called IL-2Rβγ protein
T5 sequence (looked up) 1: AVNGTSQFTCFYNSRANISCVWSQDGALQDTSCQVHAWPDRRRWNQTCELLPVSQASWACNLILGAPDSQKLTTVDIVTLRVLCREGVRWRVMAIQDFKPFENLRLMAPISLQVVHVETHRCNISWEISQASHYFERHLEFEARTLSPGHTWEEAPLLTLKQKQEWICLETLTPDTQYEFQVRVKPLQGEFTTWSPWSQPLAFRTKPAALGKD
T5 sequence (looked up) 2: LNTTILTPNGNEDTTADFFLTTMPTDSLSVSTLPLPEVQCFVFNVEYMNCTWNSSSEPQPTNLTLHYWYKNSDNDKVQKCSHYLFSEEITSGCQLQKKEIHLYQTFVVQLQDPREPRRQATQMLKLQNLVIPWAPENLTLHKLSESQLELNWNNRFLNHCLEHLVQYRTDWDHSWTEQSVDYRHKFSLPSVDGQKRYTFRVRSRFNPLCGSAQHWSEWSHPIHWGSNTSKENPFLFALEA

B1: Fusion Protein A (other)
light: DIVMTQTPLSLSVTPGQPASISCRSSQNIVHSQGDTYLEWYLQKPGQSPQLLIYKVSKRFSGVPDRFSGSGSGTDFTLKISRVEAEDVGVYYCFQGSHVPWTFGGGTKVEIKRTVAAPSVFIFPPSDEQLKSGTASVVCLLNNFYPREAKVQWKVDNALQSGNSQESVTEQDSKDSTYSLSSTLTLSKADYEKHKVYACEVTHQGLSSPVTKSFNRGEC
heavy 1: QVQLVQSGAEVKKPGASVKVSCKASGYTFTGYWMHWVRQAPGQGLEWIGMIHPNSDTTTYNEKFKNRVTMTRDTSISTAYMELSRLRSDDTAVYYCAGTDQAAWFAFWGQGTTVTVSSASTKGPSVFPLAPCSRSTSESTAALGCLVKDYFPEPVTVSWNSGALTSGVHTFPAVLQSSGLYSLSSVVTVPSSSLGTKTYTCNVDHKPSNTKVDKRVESKYGPPCPPCPAPEFLGGPSVFLFPPKPKDTLMISRTPEVTCVVVDVSQEDPEVQFNWYVDGVEVHNAKTKPREEQFNSTYRVVSVLTVLHQDWLNGKEYKCKVSNKGLPSSIEKTISKAKGQPREPRVYTLPPSQEEMTKNQVSLWCLVKGFYPSDIAVEWESNGQPENNYKTTPPVLDSDGSFFLYSRLTVDKSRWQEGNVFSCSVMHEALHNHYTQKSLSLSPGKSGGGSGGGSGGGSGG[letters of about 150 residues not shown]
heavy 2: QVQLVQSGAEVKKPGASVKVSCKASGYTFTGYWMHWVRQAPGQGLEWIGMIHPNSDTTTYNEKFKNRVTMTRDTSISTAYMELSRLRSDDTAVYYCAGTDQAAWFAFWGQGTTVTVSSASTKGPSVFPLAPCSRSTSESTAALGCLVKDYFPEPVTVSWNSGALTSGVHTFPAVLQSSGLYSLSSVVTVPSSSLGTKTYTCNVDHKPSNTKVDKRVESKYGPPCPPCPAPEFLGGPSVFLFPPKPKDTLMISRTPEVTCVVVDVSQEDPEVQFNWYVDGVEVHNAKTKPREEQFNSTYRVVSVLTVLHQDWLNGKEYKCKVSNKGLPSSIEKTISKAKGQPREPQVYTLPPSQEEMTENQVSLSCAVKGFYPSDIAVEWESNGQPENNYKTTPPVLDSDGSFFLVSRLTVDKSRWQEGNVFSCSVMHEALHNHYTQKSLSLSPGKGGGGSGGGGSGGGGSGGGGSELCDDDPPEIPHATFKAMAYKEGTMLNCECKRGFRRIKSGSIYMLCTGNSSHSSWDNQCQCTSSATRNTTKQVTPQPEEQKERKTTEMQSPMQPVDQASLPGHCREPPPWENEATERIYHFVVGQMVYYQCVQGYRALHRGPAESVCKMTHGKTRWTQPQLICTG
notes: Antibody-cytokine fusion with two anti-PD-1 Fab arms; also called fusion protein of the present invention; anti-PD-1 1G1-h70 IgG4 heterodimeric Fc with IL-2 C125S and CD25 L42I
- fold difference of the IL-2 response in IL-2Rαβγ cells with against without PD-1 expression (HEK-Blue) [1]: 44 fold
- fold stronger IL-2 response in IL-2Rβγ cells expressing PD-1 than in cells without PD-1 expression (HEK-Blue) [1]: ~340 fold
- EC50 (nM), HEK-Blue SEAP reporter, IL-2Rβγ cells, PD-1 (+), 2nd [2]: 0.0392 nM
- EC50 (nM), HEK-Blue SEAP reporter, IL-2Rβγ cells, PD-1 (-), 1st [2]: 7.27 nM
- EC50 (nM), HEK-Blue SEAP reporter, IL-2Rβγ cells, PD-1 (-), 2nd [2]: 12.2 nM
- EC50 (nM), HEK-Blue SEAP reporter, IL-2Rαβγ cells, PD-1 (+), 1st [3]: 0.0348 nM
- EC50 (nM), HEK-Blue SEAP reporter, IL-2Rαβγ cells, PD-1 (+), 2nd [3]: 0.0578 nM
- EC50 (nM), HEK-Blue SEAP reporter, IL-2Rαβγ cells, PD-1 (-), 1st [3]: 0.963 nM
- EC50 (nM), HEK-Blue SEAP reporter, IL-2Rαβγ cells, PD-1 (-), 2nd [3]: 3.08 nM
- Kd [4]: 47.6 pM
- koff [4]: 2.31e-05 s⁻¹
- kon [4]: 486000 M⁻¹ s⁻¹
- Kd [5]: 530 pM
- koff [5]: 7.27e-05 s⁻¹
- kon [5]: 137000 M⁻¹ s⁻¹
- binding result [6]: no binding
- EC50 [7]: ~50000 pM
